Source: the supplement of paper PMC3334620
Whole data set: some 33,000 sequences, median “E-score (-0.5 to 0.5)” near -0.017, cut for the highest 2% near 0.3. This is one part of the list.

biological target: T1, Sut1 (UniProt P53032); test: PBM E-score (8-mer binding enrichment) (E-score (-0.5 to 0.5)); higher = stronger / more preferred TF binding; most listed sequences are background and not binding sites; conditions: protein concentration: 200 nM; construct: GST-full length
T1 sequence: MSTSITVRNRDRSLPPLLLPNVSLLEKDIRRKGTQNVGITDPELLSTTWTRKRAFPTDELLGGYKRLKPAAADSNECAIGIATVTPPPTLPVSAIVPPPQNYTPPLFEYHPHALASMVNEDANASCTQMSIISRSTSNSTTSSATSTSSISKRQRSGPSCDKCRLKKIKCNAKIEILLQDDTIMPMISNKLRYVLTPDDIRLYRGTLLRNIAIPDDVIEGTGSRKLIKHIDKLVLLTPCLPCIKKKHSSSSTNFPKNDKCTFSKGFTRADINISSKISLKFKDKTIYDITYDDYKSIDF
Outline: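 Full-length yeast transcription factors or their DNA-binding domains, GST-tagged and expressed with PURExpress, were applied at about 100-200 nM to universal all-10-mer Agilent arrays. These arrays had been made double-stranded by primer extension on fresh or once-stripped slides. Detection used fluorescent anti-GST, normalisation used masliner, and E-scores for ungapped eight-base words pooled with reverse complements came from the Universal PBM Analysis Suite.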

Sequence | PBM E-score
TCGAACAA | 0.102
ACCTCCTC | -0.197
CCGAAAGA | 0.264
CTTGTGTA | 0.0882
CCCTTCTC | -0.146
GAATCTCC | 0.234
CGCATCGC | -0.172
CACCGGTG | 0.0775
ATTGATGG | 0.118
CGACGGAG | 0.254
CCGTTCAC | -0.107
GAAGGTCA | -0.00746
CCTACGAA | -0.134
CAGCGCGG | -0.0683
ATCGTCGC | -0.183
ATCCTCCG | 0.115
CGACACTC | 0.0434
GACAATAA | 0.107
CTAGTAAC | 0.0682
CCTACTCC | 0.278
GACCCGCA | -0.146
GCGCTCCA | -0.242
ACGTACTA | -0.0235
CGATTCTC | -0.00194
GAGGGGAA | -0.112

Sequence | PBM E-score
ATCAATGA | 0.164
AGACCCCT | -0.317
GGCCCACC | -0.247
GGACTTGA | 0.339
ACGGGCCC | -0.203
CGGACGAA | 0.234
ATTAAACC | 0.235
ATTCTTGG | 0.0534
AATCTTAT | 0.126
AACATGTA | 0.224
TCTACAAA | 0.0443
ACTTGAGA | -0.0637
AATGTAGT | 0.165
AGGTGGCG | -0.24
ACCTTGGG | -0.109
TGTGTGAA | -0.105
ATCAATTA | 0.31
AGCAATAC | 0.139
ACTTTCCG | 0.258
ATGTGTCG | -0.0171
CAGTTCGG | 0.148
CTAAGATA | 0.115
CACCTCTC | -0.222
CGTGAGCC | -0.151
GAGCCGGC | 0.125

Sequence | PBM E-score
TCATGAAA | -0.0244
AGTTTATG | 0.0377
GGGGTGGA | -0.11
AACGAAAG | 0.00267
CACAAATC | 0.117
CATTGGTC | -0.017
AAAGTTCC | 0.0675
GTTTTCGA | 0.113
AAGTCCCA | -0.325
AATATTCA | 0.219
CAACAGTA | -0.0294
CTGAGTGA | 0.168
AGTAGATC | 0.0396
CACTGCTG | -0.372
CATTTGAG | 0.0705
ATTCCCCG | 0.0831
AATTTCAT | 0.196
CGGGACCA | -0.193
GGGGCTCA | -0.269
ACCGACAA | 0.0505
AAAAAGCG | 0.25
GCTGTCGA | -0.15
AAAGAAAT | 0.246
CCCTATCC | -0.0823
CACTTACA | 0.202

Sequence | PBM E-score
GTCGGAAA | 0.355
GTGTACTA | 0.0759
GTAAGGTA | 0.218
ATTCTACG | 0.0932
GCGCCGCC | -0.155
CTCGGGTA | -0.125
ACAGGTCA | -0.234
AAGACCTA | -0.0606
ACAGCGCC | -0.0715
AATACGGG | 0.00153
CGCCCGTC | -0.116
ATGAGCCG | -0.135
GAGTTCCC | -0.154
AGAGTATA | 0.00921
ACCTTCTG | -0.00802
ATGCCCTG | -0.331
CAAGCTTG | 0.0115
CAGTTCTC | -0.0145
GATGCGTA | 0.0586
AGAGGAAT | -0.177
ACATAATC | 0.187
CTATCTCA | 0.156
AGACTTTC | 0.0853
AAACCCCC | -0.346
GTGCGCCA | -0.267

Sequence | PBM E-score
TGGCTAAA | 0.143
GTAAAAAA | 0.288
TGTCATAA | 0.153
GCGACTCC | 0.119
ATTCCTAA | 0.12
CTCTGCAA | -0.0084
CGACGTTC | -0.246
AAACGAAG | 0.132
GATCAAAA | 0.0728
ATAAGGCC | -0.0239
AGACAGAT | 0.137
AGATGGGA | -0.12
AGTCGATA | 0.117
AGCAATGC | 0.0322
AACTCTTG | -0.135
AACACGGC | -0.107
AGTCTGGG | -0.371
CGTCTCTC | 0.0248
ACCGGTTG | 0.12
ACTCTTCA | 0.0318
ACCAGTCT | -0.0713
CACTAATG | -0.0155
ACTTGAAC | 0.157
ACTCCCCC | -0.364
ACGTCTGG | -0.144

Sequence | PBM E-score
AAGTATAC | 0.193
GTGACGCA | -0.147
ATTATGTA | 0.244
ATCTTAGA | 0.193
CATAATGG | -0.254
GTCGAATA | -0.119
CCGTTACC | 0.134
CACAGCGA | -0.00299
GATATGAA | 0.112
AGACGGAG | 0.322
ATACGCTA | -0.0645
GAATGGCA | -0.0145
CAGGAGGA | -0.184
CGCAGATA | -0.189
ATCTCGAC | 0.0641
ACGAGCGA | -0.158
GACTACAA | 0.099
GGCAACAC | -0.0334
ACAAAAAC | 0.178
GAACATAC | 0.167
TAACGAAA | 0.154
AGGCAGTA | -0.156
TCCGTACA | 0.291
GTATCTAA | 0.171
ATAATCGG | 0.281

Sequence | PBM E-score
GCGGAAAC | -0.0559
ATCTGATG | 0.0524
ATACCATC | 0.135
CCTTGTTA | -0.0816
AGTCGTTA | 0.141
CGTCCCCC | -0.176
ACGGTGTA | -0.0736
GCGCACAA | -0.096
AAGAATAT | 0.109
CTAGTTGC | -0.0129
ACTCCTCG | 0.0113
GAGCGATA | -0.0121
ACAGTGCG | -0.119
CTGATGTA | -0.0294
TCAATGCA | -0.13
AGCGAATA | -0.0219
AGACGTCT | -0.0546
AAATGTGT | 0.17
AACTGTAC | 0.00912
GTGAATCA | 0.00852
GTTATACA | 0.22
CCGGCCCC | -0.115
